Consider 99 molecules from paper PMC6919601, “Identification of Plasmodium dipeptidyl aminopeptidase allosteric inhibitors by high throughput screening” (PLoS ONE, 2019).

Out of some 110,000 compounds screened, about 230 (0.21%) showed an effect of 50% or more. The list shows a part of the results.
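Note: 30 min substrate incubation versus DMSO and 10 µM JCP410 controls.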

This test deals with DPAP1 (Plasmodium falciparum, UniProt Q8IIJ9). Description: primary screen, percent inhibition; read by cleavage of a fluorogenic dipeptide substrate; higher = more effect of the substance. Also on record: species or system P. falciparum D10 trophozoite lysates; single well.
Sequence of DPAP1 (Q8IIJ9 whole entry, looked up): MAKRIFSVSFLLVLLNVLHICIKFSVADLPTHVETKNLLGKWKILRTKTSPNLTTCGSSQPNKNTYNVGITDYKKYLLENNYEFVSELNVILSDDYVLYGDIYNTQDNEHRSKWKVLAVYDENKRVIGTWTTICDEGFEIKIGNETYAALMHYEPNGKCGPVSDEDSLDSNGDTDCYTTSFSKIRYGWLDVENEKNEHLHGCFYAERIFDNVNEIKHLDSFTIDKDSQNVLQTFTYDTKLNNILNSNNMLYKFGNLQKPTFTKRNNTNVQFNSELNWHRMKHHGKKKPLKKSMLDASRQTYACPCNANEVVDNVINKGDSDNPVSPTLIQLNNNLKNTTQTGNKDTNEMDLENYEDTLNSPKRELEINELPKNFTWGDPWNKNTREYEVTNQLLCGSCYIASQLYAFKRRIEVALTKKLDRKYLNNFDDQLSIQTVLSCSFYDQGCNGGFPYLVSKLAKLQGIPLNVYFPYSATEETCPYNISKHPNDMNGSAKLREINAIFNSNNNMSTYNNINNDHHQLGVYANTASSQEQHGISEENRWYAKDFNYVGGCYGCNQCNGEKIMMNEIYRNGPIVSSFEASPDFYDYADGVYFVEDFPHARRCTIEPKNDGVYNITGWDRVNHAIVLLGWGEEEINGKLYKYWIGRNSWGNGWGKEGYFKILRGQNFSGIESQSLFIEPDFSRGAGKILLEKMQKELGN
Consider `CNc1nc2c(s1)C(=O)CC(C)(C)C2`, for which the “% Inhibition @ 10 uM” value is listed as -0.711%.
The figure for `Cc1nn(CC(=O)N2CCOCC2)c(=O)c2nn(-c3ccccc3)c(C)c12` is -5.74%.
The figure for `Cc1ccccc1-n1c(SCc2ccccn2)nc2nnc(C)c-2c1N` is 0.992%; for `O=C(COc1ccc(Br)cc1Cl)Nc1ccc(S(=O)(=O)N2CCOCC2)cc1` it is -3.04%; for `Cn1c(C(Cc2ccccc2)NC(=O)c2ccc(F)cc2)nc2ccccc21` (stereo not drawn) it is 0.813%.
The figure for `COc1ccc(C(=O)CC2(O)C(=O)N(CCc3ccccc3)c3ccccc32)cc1OC` (stereo not drawn) is -7.23%.
`O=C(CSc1nc2c(c(=O)n1CCc1ccccc1)SCC2)N1CCCCC1`: the “% Inhibition @ 10 uM” value is 3.25%.
The figure for `COc1ccc(-c2noc(CN(C(=O)COc3ccc(C)cc3Br)C(C)C)n2)cc1` is 1.66%; for `COc1ccccc1N1CCN(C(=O)CN(c2ccccc2C)S(C)(=O)=O)CC1` it is -1.79%.
The result for `CC(CCCC(C)(C)O)NC1CCN(C)CC1` (stereo not drawn) reads 5.03%.
For the molecule `CCCNC(=O)C1CC(c2ccccc2F)=NO1` (stereo not drawn), the “% Inhibition @ 10 uM” value is -5.79%.
The result for `CC1(C)CC(=O)C(=C2C(=O)c3ccccc3C(O)=C2Cl)C(=O)C1` reads 6.27%; that for `C/C(Cl)=C/CN1C(=O)C2CC=C(Cl)CC2C1=O` (stereo not drawn), -2.14%; that for `CCCN1CCN(C(=O)c2cc3c(O)nc4ccc(C)cc4c3s2)CC1`, 9.26%.
On to `Cc1c(C(=O)NC(C)CCc2ccccc2)oc2ccc(S(=O)(=O)N3CCOCC3)cc12` (stereo not drawn), for which the “% Inhibition @ 10 uM” value came out at 1.14%.
`C=CCOc1ccc(/C=C2/SC(=O)N(CC(=O)N3CCN(c4ccccc4)CC3)C2=O)cc1`: the “% Inhibition @ 10 uM” value is 1.89%.
The figure for `CCN(CC)CCNC(=O)CN1Cc2c(cnn2-c2ccccc2)C1=O` is 5%; for `COc1ccc(NS(=O)(=O)C[C@H](CCCCN)NC(=O)[C@H](CS(=O)(=O)Cc2ccccc2)NC(=O)N2CCOCC2)cc1` it is -5.21%; for `C=C(C)Cn1c(SCC#N)nc2sc3c(c2c1=O)CCC3` it is 1.01%.
The figure for `O=C(c1ccc(Cl)c([N+](=O)[O-])c1)N1CCCCC1` is 3.32%; for `COc1ccccc1C1C2=C(O)CCCC2=NC(C)=C1C(=O)Nc1c(F)cccc1F` (stereo not drawn) it is 6.92%; for `O=C(CN1C(=O)CSc2ncccc21)NCCC1=CCCCC1` it is -4.15%.
The figure for `O=C(O)Cc1ccc(-n2cnnn2)cc1` is 1%; for `Oc1c(/C=N/Cc2cccnc2)c(-c2ccccc2)nn1-c1nc2ccccc2s1` it is 5.24%; for `O=C(CSc1nc2c(c(=O)n1Cc1ccccc1)SCC2)NCC1CCCO1` (stereo not drawn) it is -4.93%.
For the molecule `COc1ccc(-c2nc(CN3CCC(C(=O)N4CCOCC4)CC3)c(C)o2)cc1OC`, the “% Inhibition @ 10 uM” value is recorded as -2.85%.
The figure for `O=C(CN1C(=O)c2ccccc2S1(=O)=O)N1CCN(Cc2ccccc2)CC1` is -6.49%; for `Cc1ccc(-c2c(NCCC3=CCCCC3)c(=O)c2=O)cc1` it is -1.11%; for `c1ccc(-c2noc(-c3cccc4ccccc34)n2)cc1` it is -5.62%.
In the case of `COc1ccc(CN2CCCCCC2)cc1OC`, the “% Inhibition @ 10 uM” value worked out at 2.33%.
As for `CN(C)Cc1cc(CN(C)C)c(O)c(CCc2ccccc2)n1`, the “% Inhibition @ 10 uM” value stood at 0.716%.
Consider `O=C(CN1C(=O)c2ccccc2Sc2ncccc21)NCCCN1CCCCC1`, for which the “% Inhibition @ 10 uM” value turned out to be 0.436%.
The result for `Cc1nn(CC(=O)NCCN2CCCCC2C)c(=O)c2nn(-c3ccccc3)c(C)c12` (stereo not drawn) reads 4.65%.
The figure for `CN(Cc1ccccc1)C(=O)c1ccc(CS(=O)(=O)Cc2ccc(Cl)cc2)o1` is -4.97%; for `CC1(C)CC(=O)C2=C(C1)OC(N)=C(C#N)C2c1ccc(F)c(F)c1` (stereo not drawn) it is 3.54%.
The result for `N#CCNC(=O)[C@H](Cc1ccccc1F)NC(=O)OCc1ccccc1` reads -3.48%.
As to `COCCCNC(=O)c1ccc2c(c1)sc1nc(-c3ccc(OC)cc3)cn12`, the “% Inhibition @ 10 uM” value is listed as 5.08%.
The figure for `Cc1cc(NC(=O)CSc2nc3ncccc3c(=O)n2CCc2ccccc2)[nH]n1` is -1.66%; for `CCOc1cc(C2c3c(-c4ccccc4O)n[nH]c3C(=O)N2CCCO)ccc1OCCC(C)C` (stereo not drawn) it is -1.35%; for `CCCNC(=O)c1ccc2c(c1)c(C)c(C)n2Cc1ccccc1` it is -6.45%.
The figure for `Cc1cccc(C(=O)Nc2ccccc2N2CCN(C(=O)C(C)C)CC2)c1` is -1.44%; for `COc1ccc(S(=O)(=O)N2CCCC(C(=O)N3CCC(Cc4ccccc4)CC3)C2)cc1` (stereo not drawn) it is -3.13%; for `CC(C)(C)C(=O)Nc1nnc(Cc2ccc(Cl)cc2)s1` it is 1.58%.
The result for `CCC(=O)N1CCN(c2ccc(NC(=O)c3sc4ccccc4c3Cl)cc2)CC1` reads -2.77%.
For the molecule `COc1ccccc1N1CCN(C(=O)CN(c2ccc(C)cc2)S(C)(=O)=O)CC1`, the “% Inhibition @ 10 uM” value came out at 0.324%.
Turning to `C/N=C(\SCC(=O)c1ccccc1)c1c(C)n(C)c2ccccc12`, the “% Inhibition @ 10 uM” value is -2.64%.
The result for `CS(=O)(=O)N1CCN(C2=C(Cl)C(=O)c3ccccc3C2=O)CC1` reads 2.03%.
The figure for `Cc1cc(C)c(NC(=O)CN2CCN(c3ccccn3)CC2)c(C)c1` is -2.63%.
In the case of `O=C(NCCCCc1ccccc1)c1ccc(Cl)cc1Cl`, the “% Inhibition @ 10 uM” value was -5.11%.
The figure for `CCOC(=O)C1=CN(C(C)C)C=C(C(=O)OCC)C1c1ccc(C(F)(F)F)cc1` is 0.219%.
The figure for `COCc1cc(C)nc(SCC(=O)Nc2cc(Br)cc3cccnc23)c1C#N` is 3.99%; for `Nc1ccccc1C#Cc1ccccc1` it is 0.101%; for `O=C(c1cccc2c1C(=O)N(Cc1cccnc1)C2)N1CCN(Cc2ccccc2)CC1` it is -0.499%.
`Cc1ccsc1CN(C(=O)c1ccc(Cl)cc1)C1CCS(=O)(=O)C1` (stereo not drawn): the “% Inhibition @ 10 uM” value is recorded as -2.85%.
The figure for `Cc1ccc(C)c(S(=O)(=O)N2CCN(C)CC2)c1` is 2.22%; for `CCOC(=O)c1ccc(-n2c(C)cc(C=C3C(=O)NC(=O)NC3=O)c2C)cc1` it is 3.34%; for `C=CCN1C(=O)/C(=C\c2ccc(OC)cc2)C(C(=O)OC)=C1C` it is -3.4%.
The result for `COC(=O)c1ccccc1-n1c(C)nc2ccccc2c1=O` reads 2.92%; that for `O=C(CSc1nc2ccsc2c(=O)n1CC1CCC(C(=O)O)CC1)NCCCc1ccccc1` (stereo not drawn), 3.47%.
For the molecule `COCC1=Nc2nc3ccccc3n2C(c2cc(Br)ccc2OC)/C1=C(/O)OC` (stereo not drawn), the “% Inhibition @ 10 uM” value is -7.08%.
On to `Cc1ccc2c3c(cccc13)-c1ccccc1C2=O`, for which the “% Inhibition @ 10 uM” value is -5.36%.
The result for `COc1cc(OC)cc(-c2nc(-c3ccc(OC)c(OC)c3)no2)c1` reads 1.89%; that for `CC(Oc1ccccc1)C(=O)Nc1cccc(Cl)c1` (stereo not drawn), 0.843%; that for `O=C(Nc1ccccc1)c1ccccc1Br`, 0.912%.
For `C=CCn1c(=N)c(C(=O)NC)cc2c(=O)n3cccc(C)c3nc21`, the “% Inhibition @ 10 uM” value turned out to be 0.279%.
For `Cc1ccc(NC(=O)/C=C/c2ccc(Cl)cc2)cc1C`, the “% Inhibition @ 10 uM” value stood at 3.47%.
The figure for `CN1C(=O)NC(c2ccccc2OC(F)F)C2=C1CC(C)(C)CC2=O` (stereo not drawn) is -1.49%.
The figure for `CCOc1ccc(N2C(=O)C3C4CCCN4C4(C(=O)c5ccccc5C4=O)C3C2=O)cc1` (stereo not drawn) is -0.992%.
The figure for `CCNC(=O)C1CCCN1S(=O)(=O)c1ccc(Cl)c(Cl)c1` (stereo not drawn) is 2.7%.
Take `CC1Cn2c(C(=O)NCc3ccccc3)cc3cccc(c32)S1` (stereo not drawn): the “% Inhibition @ 10 uM” value turned out to be 5.08%.
As to `CC(C)Cc1cc(-c2cccc(Br)c2)c(C#N)c(N)n1`, the “% Inhibition @ 10 uM” value is recorded as -5.74%.
Consider `COc1ccc(N(C(C)=O)c2nc(C)cc(C)c2C#N)cc1`, for which the “% Inhibition @ 10 uM” value was -3.37%.
`O=C(NCCc1ccccc1)C(Cc1ccccc1)NS(=O)(=O)c1cccc2nsnc12` (stereo not drawn): the “% Inhibition @ 10 uM” value is given as -3.23%.
As for `O=C(c1scc2c1CCCC2)N1CCN(Cc2ccccc2)CC1`, the “% Inhibition @ 10 uM” value is listed as 0.189%.
The result for `Cc1cc(C)nc(Nc2ncc(O)n2-c2ccc(Br)cc2)n1` reads -1.65%.
The figure for `O=c1oc(-c2ccco2)nc2sc3c(c12)CCCC3` is -5.11%; for `CCOc1ccc(/C=C2/S/C(=N/c3ccccc3)N(C)C2=O)cc1` it is -1.26%; for `O=C(NCc1cccs1)C1CC(=O)N(C2CCCC2)C1` (stereo not drawn) it is 3.79%.
The result for `COc1cc(C(=O)n2nc(C)cc2C)cc(OC)c1OC` reads 15.9%; that for `O=S(=O)(c1ccccc1)c1nc(-c2cccs2)oc1NCc1ccccc1`, 4.94%.
In the case of `CC(=O)Nc1c(C(=O)N2CCN(CCO)CC2)cnn1-c1ccccc1Cl`, the “% Inhibition @ 10 uM” value was found to be 2.27%.
The result for `O=C(O)c1sc(Cl)cc1CCc1ccccc1` reads 7.76%; that for `OCc1ccccc1CN1CCCCCC1`, -5.01%; that for `COc1cc2c(cc1OC)C1C(C(=O)NC3CCCC(C)C3C)c3ccccc3C(=O)N1CC2` (stereo not drawn), 3.5%.
The figure for `COC(=O)C1=CN(Cc2ccc(OC)cc2)C=C(C(=O)OC)C1c1ccc(C(C)C)cc1` is 1.86%; for `COc1cccc(NC(=O)C2CCN(C(=O)c3ccc(Br)cc3)CC2)c1` it is -2.22%; for `CCOC(=O)c1c(NC(=O)c2ccccc2)sc2c1CC(C)(C)NC2(C)C` it is 3.6%.
The figure for `O=C(NCCCO)c1nnc(-c2ccccc2)o1` is 5.43%; for `CCN1C(=O)/C(=C/c2ccoc2)C(=O)NC1=S` it is 2.16%; for `CCOC(=O)C1C(=O)NCC1c1ccccc1` (stereo not drawn) it is -0.0372%.
`CC(C)CCC(C(N)=O)C1=NC(C)(C)Cc2ccccc21` (stereo not drawn): the “% Inhibition @ 10 uM” value came out at 0.177%.
On to `O=C(O)c1c2c(nc3ccccc13)C(=O)N(C1CCCCC1)C2`, for which the “% Inhibition @ 10 uM” value was -1.51%.
For `Cc1ccc(-c2nnc(N3CCN(C(=O)CSc4nc(C)cc(C)n4)CC3)c3ccccc23)cc1`, the “% Inhibition @ 10 uM” value is -4.62%.
Turning to `COc1cc2c(cc1OC)C(c1ccc(C(C)(C)C)cc1)NCC2` (stereo not drawn), the “% Inhibition @ 10 uM” value was -1.02%.
The figure for `CCOC(=O)N1CCN(S(=O)(=O)c2ccc3nc(O)ccc3c2)CC1` is -3.27%; for `CC1CCCCN1Cc1c(O)ccc2c(=O)c(-c3ccc4c(c3)OCCO4)coc12` (stereo not drawn) it is -5.54%.
The result for `COc1ccc(OC)c(N2C(=O)CC(N3CCN(c4ccc(F)cc4)CC3)C2=O)c1` (stereo not drawn) reads -0.545%.
Take `COCCNC(=O)C1CCN(S(=O)(=O)N2CCC3(CC2)OCCO3)CC1`: the “% Inhibition @ 10 uM” value was -4.83%.
Take `CC(C)CNC(=O)C(=O)Nc1ccc(Cl)cc1`: the “% Inhibition @ 10 uM” value is -0.414%.
